Experimental data taken from paper PMC12136788.
The other results are listed elsewhere or left out.

T1: UNK ZnF1-3 (human, UniProt Q9C0B0 31-174)
T1 sequence: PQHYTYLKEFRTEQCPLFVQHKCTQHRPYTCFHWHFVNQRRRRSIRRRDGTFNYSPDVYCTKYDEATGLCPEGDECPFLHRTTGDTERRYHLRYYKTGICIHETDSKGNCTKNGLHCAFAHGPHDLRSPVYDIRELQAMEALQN

B1: 155054625_155055036_174_5pUTR_ENSG00000213079_ENST00000417268|human|control|control (ssRNA)
RNA: GGGAGUUCUACAGUCCGACGAUCAUGUUGUCGCUGCGGAGGCCCCGAGCCCGGCGGCGGAAGAGGCGGCGGCCACUGCACUGGGUGGGGAGAGCGAGACGCGGGCUGCUGCGUGGCCGCGAGGAGGGGGCGCUCCCCGCCGCUCAACAGAGGAUUGAGCAUCA
B2: chr2:217001844:217001845:+_ENSG00000079246_ENST00000392132|hu_hu|hu_hu_hu_mus_False|28_98 (ssRNA)
RNA: GGGAGUUCUACAGUCCGACGAUCACCAACUUGAGGAUUAGCUCUUUUGUCAUAAGCAUAUCGGACGAUGGCGACCAUGUUUAACUCAUCCAAAGCAUGAACGAGAGAGGAAAGUGCAACAGCUGCCGCCUCAUCAUCCUUUGCCAACAGAGGAUUGAGCAUCA
B3: chr7:99638656:99638657:+_ENSG00000106261_ENST00000324306|hu_mus|FALSE|FALSE (ssRNA)
RNA: GGGAGUUCUACAGUCCGACGAUCCUCUAUAUAAAUGUAGGCUUAUCAUGUUGACCUGGUUGUUAAUAAUAAUCCUUAACUGAAAGUUUAUAAAAAUACAACUUAAAAAUUUGCUUGCACAACCACCCUAACCCUUAACACUCGCAACAGAGGAUUGAGCAUCA
B4: chr15:41988372:41988373:+_ENSG00000174197_ENST00000570161|hu_hu|FALSE|FALSE (ssRNA)
RNA: GGGAGUUCUACAGUCCGACGAUCUGUCUCUUCCUGUUUCACAGUGACCCCUUCUGGGCACUCACCAAGUUCGUAGUCAUAAUCAUCUAGAGGUUCCUCUUUAAUAACAACAUUGAAGCUUCCGUUCUGGUCUAACGGUGAGGCCAACAGAGGAUUGAGCAUCA
B5: chr1:110121848:110121849:+_ENSG00000065135_ENST00000369851|hu_hu|FALSE|FALSE (ssRNA)
RNA: GGGAGUUCUACAGUCCGACGAUCCCGUUUAAUCACUCCUGCUAGUUCUGGAGUCAUGACUCCUUCUUCAGCACUGCCAGCUAAAACAAAUAAUUGCCGGGCAUCAUCUGCCCUGGCAGCUUCCCCAAAGUCAAUCUUUAGCCGCAACAGAGGAUUGAGCAUCA
B6: chr9:70409674:70409675:+_ENSMUSG00000032212_ENSMUST00000049263|mus_mus|FALSE|FALSE (ssRNA)
RNA: GGGAGUUCUACAGUCCGACGAUCUACAAAUUCCUGAGUUGUCUUGUUCUCUUCUGUAGAAAGCAACUCCUGGGAAUGCACAAUUUCCUCUUCAUUUUCACCAAAUUCUUCCAAGUCCUUUAGCUCUUCAUUUCCAUCUUGGUCCAACAGAGGAUUGAGCAUCA
B7: chr3:132387698:132387699:+_ENSG00000081307_ENST00000264991|hu_hu|motif|central (ssRNA)
RNA: GGGAGUUCUACAGUCCGACGAUCUUGAACUUUACUUAAUCCUGCUUGAUGAGGUUGGAAGAAAAGUCUAUUCAUAUUGGCGGGUUCCACCUUGUCAUAAUCAAAGAGUAGCAACUUACCAAUGCCACAUCUUGUCAGCAUUUCCAACAGAGGAUUGAGCAUCA
B8: chr8:95500983:95500984:-_ENSG00000164944_ENST00000437199|hu_hu|hu_hu_hu_mus_True|1_28 (ssRNA)
RNA: GGGAGUUCUACAGUCCGACGAUCAGAACACAUCUAUCGAGUAAAGGACCGUACAUGACGGCCUCUACCACUGCCUCCACUAACAAACUUUCCUCUCGAGCCUCCACCUGCCGCUAUUGUACUAGCCCAGGACGGUCCCAAGUCCAACAGAGGAUUGAGCAUCA
B9: chr17:45760540:45760541:+_ENSG00000108424_ENST00000290158|hu_mus|FALSE|FALSE (ssRNA)
RNA: GGGAGUUCUACAGUCCGACGAUCGCGCUGACCAUUCGUCAGUGUUUUCCCUAGAGUAAUUAAAAUGAAACCAAACCAAACCUAAACAGCGUCUUUCCUCAUUUAAAAAAAAAACACGUCUCUUGUGCUGCAUCAGUAGCCAGACAACAGAGGAUUGAGCAUCA
B10: chr11:46405157:46405158:+_ENSG00000110492_ENST00000395566|hu_hu|hu_hu_hu_mus_False|88_98 (ssRNA)
RNA: GGGAGUUCUACAGUCCGACGAUCCCCUCCCCACUUUGGCUGGGGAGUGAGAGGGACAGAGGACAGGCGUGAUUGACAGAGCUGACAGGAAGACAAAAGGCACUGGUGGGUUAUAUCUUGGGCCUGUGGGAGAGGAGGGCUCCGCAACAGAGGAUUGAGCAUCA
B11: chr6:119226881:119226882:+_ENSG00000111875_ENST00000229595|hu_mus|FALSE|FALSE (ssRNA)
RNA: GGGAGUUCUACAGUCCGACGAUCUGGGUUUUCCCUUAAUUCUGUUUCAGUGUAUUCAUUAUUUACAUAGUAGCCAACUCUAAUAAAUUCUUGACCUCGGUAGGUGCAAGUAAUCAGAACAACUGUUACCCCCACUGCAUCUGCCAACAGAGGAUUGAGCAUCA
B12: 21032951_21033071_225_5pUTR_ENSG00000101782_ENST00000339486|human|control|control (ssRNA)
RNA: GGGAGUUCUACAGUCCGACGAUCGGCAGGGCAGGGCAAGAACUGGGUGUGGCUUCCUUUGGCCCAGGCUCUGCCCUGUCCCCGCACUGCCAUCUCCUUCUUUCCUCCUUGGCACCCCAAAAAUUGCCGCUGGAUCUAAACUAGCAACAGAGGAUUGAGCAUCA
B13: 44323887_44324007_894_CDS_ENSG00000160194_ENST00000354250|human|control|control (ssRNA)
RNA: GGGAGUUCUACAGUCCGACGAUCUGUGUGGACAGGUAAGGGUCCUUUAACUUCAAAUGGCUUUUGGCUUUCUUUAUCUAUUUCAUUUAAUCUAAAUGUUUUCUGCAAUUGUUUUUCCUUUAAACUUUGCUUCAAAAACUCUUCCAACAGAGGAUUGAGCAUCA
B14: 84052462_84056824_1226_CDS_ENSMUSG00000020532_ENSMUST00000020843|mouse|control|control (ssRNA)
RNA: GGGAGUUCUACAGUCCGACGAUCCCCAGCACUCACAUAACCAACCAUUUUGGCAAGUUUCACUGCACACUGUUCCAUGUGUUCAAAUACUGCUGGGGUAGCAAUCGCAGCAGGAGCUUCUUCAAUGAUCUUCUGAUGCCUGCGCAACAGAGGAUUGAGCAUCA
B15: chr2:198267338:198267339:-_ENSG00000115524_ENST00000335508|hu_hu|FALSE|FALSE (ssRNA)
RNA: GGGAGUUCUACAGUCCGACGAUCAAUGAUUUCAACUAAACUUCUAAGAUGUGGCAAGAUGGCACAGCCCAUAAGAAUAGCUAUCUGUUGUACAAUCUUAAUACCAGUGUGUCUCGCUUGCCAGGACUUCUUGCUUUUGCACACCAACAGAGGAUUGAGCAUCA
B16: 33730633_33731758_2336_CDS_ENSMUSG00000075254_ENSMUST00000152782|mouse|control|control (ssRNA)
RNA: GGGAGUUCUACAGUCCGACGAUCGCAGGUGAACGAUCCCUGAGUAUUGUUGCACGUGGCUAGGGGAGGACAGGGGCUGGAGAGACAUUCGUUCACAUCCACACUGCAGUUCUCCCCCUGCCAGGCAGGCGGGCACACACAUCGCAACAGAGGAUUGAGCAUCA
B17: chr2:42510052:42510053:+_ENSG00000143924_ENST00000318522|hu_hu|FALSE|FALSE (ssRNA)
RNA: GGGAGUUCUACAGUCCGACGAUCACAGUCUGUAUGGCCCAGGUAGUGUCGCUGAGUUCUCUCCUCAUAAUUAAAUAGUACUACUACUGAUGCAAUGAAAUAAACUAUUUUCCCGGUCGGAAGAAGGUAAACAUUAGCUCUACACAACAGAGGAUUGAGCAUCA
B18: 104627916_104628036_2582_CDS_ENSMUSG00000074994_ENSMUST00000117237|mouse|control|control (ssRNA)
RNA: GGGAGUUCUACAGUCCGACGAUCUAAAAUAUUUCUUUCAUCACUGAGAAGCAUUGCCUCUGAGAAGCAUAUUGAUCCAAGAGAAACAAACUGAUUCUUUGAGUCAUGUGGAUUGGCUUCACUGAAGGGGCCCUUUGUUGUUAGCAACAGAGGAUUGAGCAUCA
B19: chr12:89743083:89743084:-_ENSG00000139318_ENST00000308385|hu_hu|FALSE|FALSE (ssRNA)
RNA: GGGAGUUCUACAGUCCGACGAUCCUUUCACGUAGAUUGCAGAGAGUCCACCUGGUAUACAUUCUGGUUGGAAGGGGUGGUAAAAUACAGCUGCUGUGCUGGAACCCUGUUGUCACAUGGGCUGCUGAGUCCCAGCGUCCUCUCCAACAGAGGAUUGAGCAUCA
B20: chr7:100804371:100804372:+_ENSG00000106367_ENST00000337619|hu_hu|FALSE|FALSE (ssRNA)
RNA: GGGAGUUCUACAGUCCGACGAUCCUUGCCCUUCCCCCAACCCUUCCUUCCCUCAAAGUGGCAAGGUUAGAAAAAAAUUAACUAUGUUGUUCCUCCCUGGCACUGGAUAAAGGCCCCACUGCAGCCAAGGAGAAAGAGGGGGGUCAACAGAGGAUUGAGCAUCA
B21: chr1:111986530:111986531:-_ENSG00000116455_ENST00000235090|hu_mus|FALSE|FALSE (ssRNA)
RNA: GGGAGUUCUACAGUCCGACGAUCAUUGCAGGCCAUCUGUGAUGCCGGCUUGGGACAGCGGGUAUCCCAGAGCAAAAUUCUACUGUCCUCACUACAUGAAAGAAACACAGAGUCUUUGUGGGGAGAGGCAGCAACACAGGUAACCAACAGAGGAUUGAGCAUCA
B22: chr2:148701126:148701127:-_ENSMUSG00000027447_ENSMUST00000028938|mus_hu|FALSE|FALSE (ssRNA)
RNA: GGGAGUUCUACAGUCCGACGAUCGGACGCGGGGAGUGGGGCGCAGGCGAGAGGCUGGAGCUAGAUAGAGAGGACCCGCUGCGAUACCGAGGCGAGGCCGUGAGCCCCGCGAGGCCGGCGACUGCGGUUUUAUCCCUUCCGGCCCAACAGAGGAUUGAGCAUCA

The binders below were run against T1, UNK ZnF1-3 (assay: nsRBNS (natural sequence RNA bind-n-seq); RBNS binding buffer (assumed for nsRBNS): 25 mM Tris pH 7.5, 150 mM KCl, 3 mM MgCl2, 0.01% Triton X-100, 500 ug/ml BSA, 20 U/ml SUPERase-In, 4 C; UNK is unkempt and MSI1 is Musashi-1; names of the RNAs are library labels; protein concentration not given here; high values mean tight binding).

Binder	binding signal [enrichment R]
B1	1.13
B2	1.88
B3	2.29
B4	0.933
B5	0.919
B6	0.333
B7	0.935
B8	1.16
B9	1.36
B10	2.39
B11	0.875
B12	1.03
B13	0.377
B14	0.711
B15	0.612
B16	0.575
B17	1.16
B18	1.01
B19	0.91
B20	1.86
B21	1.34
B22	0.894
